In all, about 50,000 compounds went through this assay and about 800 (1.6%) showed an effect of 50% or more. This is one part of the list.
Each molecule was assayed against Bcl-2-like protein 10 (Homo sapiens) (UniProt Q9HD36) (assay: Phenotype converters, Bcl-B/TR3 peptide binding displacement, primary biochemical FP (AID 1240;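 note: 0% = Bcl-B with tracer peptide and DMSO and 100% = tracer peptide lacking Bcl-B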)). Conditions: GST-Bcl-B / FITC-TR3 peptide fluorescence polarization; stronger effect = higher value; compound at 3.75 mg/L.
Chain of UniProt Q9HD36 (Q9HD36 whole entry, looked up): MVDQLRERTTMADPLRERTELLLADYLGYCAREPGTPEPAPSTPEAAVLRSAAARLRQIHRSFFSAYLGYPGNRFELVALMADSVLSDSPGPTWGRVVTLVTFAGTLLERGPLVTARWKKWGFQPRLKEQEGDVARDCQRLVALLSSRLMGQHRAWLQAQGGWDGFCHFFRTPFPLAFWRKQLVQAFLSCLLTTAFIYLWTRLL
For `COc1ccc(/C=C2/NC(=O)/C(=C/c3ccc(OC)cc3)C2=O)cc1`, the displacement was -0.8%.
`COc1ccc(OC)c(NC(=O)C2CN(S(=O)(=O)c3ccccc3)CCN2S(=O)(=O)c2ccccc2)c1` (stereo not drawn) showed a displacement of 3.6%.
Work on `CCOC(=O)C1=C(O)/C(=C/c2ccc(F)cc2)SC1=Nc1ccc([N+](=O)[O-])cc1` yielded a displacement of 59.1%.
For `Cc1ccc(C(=O)N/C(=C/c2cccs2)C(=O)NN)cc1`, the displacement was -8.9%.
Work on `COc1cc2c(cc1NC(=O)c1ccc(I)cc1)oc1ccccc12` yielded a displacement of 11.6%.
In the case of `COc1cccc(Nc2ccc3noc4c3c2C(=O)c2ccccc2-4)c1`, the displacement is reported as -0.6%.
In the case of `CCN(CC)c1ccc(/C=C2\C(=O)NC(=O)N(c3ccc(OC)cc3)C2=O)c(OC)c1`, the displacement is reported as 10%.
`O=C1c2ccccc2NC(c2ccccc2O)N1Cc1ccco1` (stereo not drawn) was tested, and the displacement was 14.5%.
With `COc1ccc(/C=C2\SC(N3CCC(C)CC3)=NC2=O)c(OC)c1` the displacement was -10.3%.
In the case of `CC(=O)c1cccc(NC(=O)/C=C/c2ccccc2)c1`, the displacement is reported as -2.2%.
For `O=S(=O)(NNc1ccccc1)c1ccc(Cl)cc1`, the displacement was -4.4%.
Molecule `Cc1cccc(OCCn2c(N)nc3ccccc32)c1` has a displacement of -10.3%.
`CN1CCN(S(=O)(=O)c2ccc(Oc3ccc([N+](=O)[O-])cc3)cc2)CC1` was tested, and the displacement was 11.8%.
`O=C(Nc1ccc(Cl)cc1)Nc1nnc(-c2ccccc2Br)s1` gave a displacement of 12.6%.
Work on `COc1cccc(C2C(C(=O)OCCc3ccccc3)=C(C)NC3=C2C(=O)CCC3)c1` (stereo not drawn) yielded a displacement of -6.2%.
Work on `CCOc1cc(/C=C2\SC(=S)NC2=O)cc(Br)c1OC(C)=O` yielded a displacement of -25.5%.
`Cc1cc(Cl)ccc1OCC(O)CN1CCN(C)CC1` (stereo not drawn) showed a displacement of -0.3%.
`COc1ccc(N2C(=O)CC(Cc3ccccc3OC)C2=O)cc1` (stereo not drawn) was tested, and the displacement was 9.6%.
`NC(=O)c1ccccc1NC(=O)/C(=C/c1ccccc1)c1ccccc1` gave a displacement of 10.1%.
With `CC(=O)Oc1ccc(C2C(C(=O)OCCOc3ccccc3)=C(C)NC3=C2C(=O)CCC3)cc1` (stereo not drawn) the displacement was -2.6%.
Work on `CSCCC(NC(=O)c1cc(COc2ccc(-c3ccccc3)cc2)c(C)o1)C(=O)O` (stereo not drawn) yielded a displacement of 5.6%.
With `CCOc1ccc(NC2=NS(=O)(=O)c3ccccc32)cc1` the displacement was -9%.
Work on `Cc1ccc(C(=O)N/C(=C\c2cccs2)C(=O)NCc2cccnc2)cc1` yielded a displacement of -6%.
`Cc1ccc(S(=O)(=O)N2CCN(C3CC4CCC3C4)CC2)cc1` (stereo not drawn) showed a displacement of 16.2%.
`CCc1ccccc1N(CC(=O)N1CCOCC1)S(C)(=O)=O` was tested, and the displacement was 1.1%.
`Cc1cccc(/C=N/N2CCN(Cc3ccc(Cl)cc3)CC2)c1` was tested, and the displacement was 9.1%.
Molecule `C=C(C)Cn1c(SCC(=O)c2ccc(OC)cc2)nnc1-c1ccc(Br)cc1` has a displacement of -7.2%.
`O=C(O)c1ccc2c3c(cccc13)C(=O)N(c1cccc3ccccc13)C2=O` was tested, and the displacement was -5.5%.
With `O=C1c2ccccc2-c2onc3ccc(N4CCCCC4)c1c23` the displacement was 145%.
`CC(C)Oc1ccc(C2C3=C(CC(C)(C)CC3=O)Nc3ccccc3N2C(=O)Cc2ccccc2)cc1` (stereo not drawn) was tested, and the displacement was -20.1%.
In the case of `Cc1cccc(OCC(=O)NCc2ccncc2)c1`, the displacement is reported as 2.7%.
Work on `NC(=O)Cc1ccc2sc(-c3ccccc3)nc2c1` yielded a displacement of -6.8%.
For `Cc1ccc(OCCCCCc2c(C)n[nH]c2C)c(C)c1`, the displacement was -6.7%.
`CN(C)CCN1C(=O)C(=O)/C(=C(/O)c2ccccc2)C1c1ccc2c(c1)OCO2` (stereo not drawn) showed a displacement of 4.9%.
For `CC(C)(C)SCCN=C1NS(=O)(=O)c2cc([N+](=O)[O-])ccc21`, the displacement was -7.8%.
`O=P(CN1CCCCC1)(c1ccccc1)c1ccccc1` was tested, and the displacement was 11.6%.
`CCCN(CCC)C(=O)Cc1ccc(Cl)cc1` was tested, and the displacement was -6.7%.
Molecule `Cc1c(N(C(=O)c2cc(=O)[nH]c3ccccc23)C(C)C)c(=O)n(-c2ccccc2)n1C` has a displacement of 6.9%.
`CNc1cc([N+](=O)[O-])ccc1N/C=C\C(=O)c1ccc2c(c1)OCO2` showed a displacement of 97.2%.
`O=C(COc1cccc(Cl)c1)Nc1nccs1` showed a displacement of -2.9%.
In the case of `COc1cc(/C=N\NC(=O)c2c(C)nc3cc(C)ccn23)ccc1O`, the displacement is reported as 14.9%.
With `COc1ccc(OCc2ccc(C(=O)Nc3ccccc3C(=O)O)cc2)cc1` the displacement was 3.2%.
Work on `O=[N+]([O-])c1cccc(S(=O)(=O)N2CCc3ccccc3C2)c1` yielded a displacement of 0%.
`CCCCOC(=O)Nc1ccc(S(=O)(=O)Nc2ccc(F)cc2)cc1` showed a displacement of 9.9%.
`O=c1[nH]c(SC/C=C/c2ccccc2)nc2sc3c(c12)CCCC3` was tested, and the displacement was 16.8%.
With `CC(C)C(C(=O)O)N1C(=O)/C(=C/c2ccc([N+](=O)[O-])cc2)SC1=S` (stereo not drawn) the displacement was 11.8%.
Work on `O=C(Nc1ccc(-c2nc3ccccc3[nH]2)cc1)c1ccc(Cl)cc1` yielded a displacement of -1.5%.
`CCOC(=O)c1c(NC(=O)Cc2ccc(Cl)cc2)sc(C(=O)Nc2ccccc2F)c1C` was tested, and the displacement was 3%.
`CC(=O)N1CCN(c2ccc([N+](=O)[O-])c(N)c2)CC1` showed a displacement of 12.4%.
Molecule `COc1ccc(/C=C/C(=O)c2c(O)c(OC)c3occc3c2OC)cc1OC` has a displacement of -0.6%.
`O=C(CN(Cc1ccccc1)S(=O)(=O)c1ccccc1)N/N=C/c1ccc(Cl)cc1` was tested, and the displacement was -2.4%.
Work on `CCc1ccc(-c2cc(C(=O)NC(C)(C)C)c3ccccc3n2)cc1` yielded a displacement of 2.5%.
Molecule `O=C(NCc1cccnc1)c1ccc(S(=O)(=O)N2CCCCC2)cc1` has a displacement of 1.1%.
